Out of some 310,000 compounds screened, about 2,200 (0.71%) showed an effect of 50% or more. The effect is printed as a negative number. The list shows a part of the results.
Target: human ether-à-go-go-related gene (hERG) potassium channel (human, UniProt Q12809)
Test: primary screen, population patch clamp on CHO cells stably expressing hERG

Chain of human ether-à-go-go-related gene (hERG) potassium channel (Q12809 whole entry, looked up): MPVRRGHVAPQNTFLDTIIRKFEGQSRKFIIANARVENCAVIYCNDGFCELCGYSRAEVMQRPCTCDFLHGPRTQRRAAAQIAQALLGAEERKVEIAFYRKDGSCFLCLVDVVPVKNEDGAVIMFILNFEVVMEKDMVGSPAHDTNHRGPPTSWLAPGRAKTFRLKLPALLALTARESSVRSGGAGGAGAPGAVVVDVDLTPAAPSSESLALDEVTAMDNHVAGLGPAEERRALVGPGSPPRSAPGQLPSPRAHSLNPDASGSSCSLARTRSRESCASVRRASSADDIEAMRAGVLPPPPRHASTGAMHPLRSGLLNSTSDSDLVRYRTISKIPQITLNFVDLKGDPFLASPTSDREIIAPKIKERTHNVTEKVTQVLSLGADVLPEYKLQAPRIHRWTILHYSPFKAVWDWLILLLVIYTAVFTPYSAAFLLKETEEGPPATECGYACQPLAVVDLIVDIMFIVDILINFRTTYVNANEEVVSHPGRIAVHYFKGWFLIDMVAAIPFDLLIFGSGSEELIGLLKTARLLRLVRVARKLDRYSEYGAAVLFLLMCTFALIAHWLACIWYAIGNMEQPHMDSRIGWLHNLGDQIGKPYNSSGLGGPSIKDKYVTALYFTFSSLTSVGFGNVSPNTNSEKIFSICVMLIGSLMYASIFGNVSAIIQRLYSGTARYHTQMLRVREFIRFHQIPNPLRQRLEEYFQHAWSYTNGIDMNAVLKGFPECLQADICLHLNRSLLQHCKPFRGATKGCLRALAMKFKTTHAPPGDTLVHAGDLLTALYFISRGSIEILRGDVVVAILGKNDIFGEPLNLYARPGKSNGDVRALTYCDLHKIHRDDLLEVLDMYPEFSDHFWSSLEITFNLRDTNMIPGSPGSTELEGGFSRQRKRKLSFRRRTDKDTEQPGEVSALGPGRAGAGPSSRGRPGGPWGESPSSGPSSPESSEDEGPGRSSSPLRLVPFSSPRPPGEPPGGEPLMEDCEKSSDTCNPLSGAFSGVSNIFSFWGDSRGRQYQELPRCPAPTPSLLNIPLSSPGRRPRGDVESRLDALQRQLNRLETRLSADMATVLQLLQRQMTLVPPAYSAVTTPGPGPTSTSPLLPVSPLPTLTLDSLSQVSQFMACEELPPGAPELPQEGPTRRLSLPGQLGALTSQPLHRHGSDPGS

Structure (SMILES)	hERG current change (%, negative = inhibition) at 1uM [%]
Oc1ccc(C2NCc3ccccc3-n3cccc32)cc1Cl (stereo not drawn)	4.07
O=C(NCc1cccc(C(F)(F)F)c1)c1cccc(S(=O)(=O)NCc2ccccc2)c1	9.37
O=C(Cn1cccn1)N1CCCC(N2CCN(c3ccccc3F)CC2)C1 (stereo not drawn)	10.2
COc1ccc(C(=O)Nc2ccc3[nH]ncc3c2)cc1OC	9.61
CCCCC[C@H](O)/C=C/[C@@H]1[C@@H](C/C=C\CCCC(=O)OC)[C@@H](O)C[C@H]1O	13.7
CC(=O)c1ccc(NC(=O)CSc2nnc3ccc(-c4ccccn4)nn23)cc1	1.01
CC1=C(C)CS(=O)N(S(=O)(=O)c2ccccc2)C1 (stereo not drawn)	-0.258
CC(C)OC(=O)CN1CCN(S(=O)(=O)c2cc(Cl)ccc2Cl)CC1	-1.48
Cc1cc2c(Nc3ccccc3)ncnc2s1.Cl	-1.22
Cc1ccc(C(=O)NCC(=O)Nc2ccc(C)c(S(=O)(=O)Nc3ccc(Cl)cc3)c2)s1	13.8
Cc1cccc(N2C(=O)c3ccc(C(=O)Nc4ccccn4)cc3C2=O)c1	14.5
CSc1cccc(NC(=O)c2nnn(Cc3ccccc3)c2N)c1	16
O=C1C=C(c2cccc(O)c2)C[C@@H](c2ccc(F)cc2)C1	13.3
O=C(O)/C=C\C(=O)Nc1ccc(OC(F)F)cc1	12.9
CCOC(=O)N1CCN(S(=O)(=O)c2ccc(C(=O)NNc3nc4cc(C)cc(C)c4s3)cc2)CC1	17.2
O=C1c2ccccc2NC2(CCCC2)N1N=C1CCCC1	3.95
O=C1C2C3C=CC(CC3)C2C(=O)N1c1ccc([N+](=O)[O-])cc1 (stereo not drawn)	14.4
CCOC(=O)CSc1nc2ccc(C)cc2n2cnnc12	11.3
Cc1nn(C)c(C)c1S(=O)(=O)N1CCC(C(=O)NC2CCCCC2)CC1	13
Cc1cccc(C)c1NC(=O)c1ccc2c(c1)CCN2S(C)(=O)=O	9.28
Cc1ccc(C)c(OCCC(=O)OCC(=O)NCc2ccccc2)c1	18.1
COCCNC(=O)C(c1cccs1)N(CCc1ccccc1)C(=O)Cn1nnc2ccccc21 (stereo not drawn)	9.47
CN1CCN(C(=O)C(N)Cc2ccccc2)CC1 (stereo not drawn)	1.84

Structure (SMILES)	hERG current change (%, negative = inhibition) at 1uM [%]
O=C(NCc1ccc(F)cc1)C1CCN(S(=O)(=O)N2CCCC2)CC1	9.34
O=C(COc1cc2oc(=O)c3c(c2cc1Cl)CCC3)NCCN1CCOCC1	12.4
Cc1ncoc1C(=O)N1CCc2c([nH]c3ccccc23)C1C1CCCCC1 (stereo not drawn)	15.8
C=CCN(c1ccc(C(=O)NCCCn2ccnc2)cc1)S(C)(=O)=O	15.5
COCCN(CC1CCCN(C2Cc3ccccc3C2)C1)C(=O)c1ccc(C(C)=O)cc1 (stereo not drawn)	-51.9
O=C(CCS(=O)(=O)c1ccccc1)Nc1ccc2c(c1)C(=O)NC2=O	7.64
Cc1ccc(S(=O)(=O)N2CCCC(C(=O)N3CCCc4ccccc43)C2)cc1 (stereo not drawn)	13.3
O=C(Nc1nnc(Cc2ccccc2)s1)c1ccco1	9.57
O=C(CN1CCC(n2nnc3ccccc32)CC1)NCc1cccs1	-47.3
CC1=Nc2cc(C(=O)O)ccc2Sc2ccc(C)cc21	27.5
CN1CCN(c2nc3ccccn3c(=O)c2C=O)CC1.Cl	15.2
CCOc1ncccc1C(=O)Nc1nnc(C2CC2)s1	7.35
COc1cccc(-c2nc(Cc3ccc(OC)c(OC)c3)no2)c1	8.35
COc1ccc(/C=C/C(=O)NC(=S)N2C[C@H]3C[C@H](C2)c2cccc(=O)n2C3)cc1	-6.48
CO/N=C/c1c(-c2ccc(Cl)cc2)nc2cc(C)ccn12	19.8
CC(=O)Nc1ccc(NC(=O)COC(=O)c2c3c(nc4ccccc24)CCN(Cc2ccccc2)C3)cc1	-1.91
CCc1ccc(NC(=O)CSCc2nc(N)nc(Nc3ccccc3CC)n2)cc1	10.9
O=C(CSc1nnc(CNC(=O)c2c(F)cccc2F)o1)NCCc1ccccc1	3.03
Cc1ccccc1C(=O)NCc1ccncc1	-6.97
CC/C(=N\NS(C)(=O)=O)c1ccccc1	6.87
O=C(CN1CCN(c2ccccc2)CC1)Nc1nnc(-c2ccccc2)s1	9.03
COc1ccc(OC)c(S(=O)(=O)Nc2ccc(O)c(Sc3ncn[nH]3)c2)c1	-3.39
O=C(CSc1nnnn1-c1ccc2c(c1)OCCO2)Nc1nc2c(s1)CCCC2	11.9

Structure (SMILES)	hERG current change (%, negative = inhibition) at 1uM [%]
CCSc1nnc(NC(=O)/C=C/c2ccco2)s1	2.42
O=C(CN(CC1CCCO1)C(=O)CCC(=O)Nc1nccs1)NCc1ccccc1 (stereo not drawn)	9
Nn1c(SCC(=O)Nc2ccc3c(c2)OCCO3)nnc1-c1ccccn1	-4.65
C/C(=C\C(=O)O)CC(=O)O	1.12
COc1cc(C(=O)NC(=S)Nc2cccc3nc(C)ccc23)cc(OC)c1OC	-0.514
CCn1c(SC(C)C)nnc1C1CCN(S(=O)(=O)c2ccc(OC)cc2)CC1	8.11
C#CCOc1nc(C)cc(C)c1S(=O)(=O)c1ccccc1C	10.9
CCn1nccc1C(=O)Nc1nccs1	13.5
CCOC(=O)N1CCN(C(=O)CSCc2nc(-c3ccccc3C)oc2C)CC1	-6.84
Oc1cccc2cc3cccc(O)c3c(O)c12	7.99
CCC1CCCCN1CCCNC(=O)CSc1nc2nc(C)c(Cc3ccccc3Cl)c(C)n2n1 (stereo not drawn)	4.2
O=Cc1c[nH]c2ccc(C(=O)c3ccccc3)cc12	12.2
O=C(c1ccoc1)N1CCC2(CC1)Oc1ccc(Cl)cc1C(=O)C21CC(c2ccc(Cl)cc2)=NO1 (stereo not drawn)	19.5
CCOC(=O)CCn1nc(-c2ccccc2)cc1N	6.61
CNC(=O)N/N=C(\N)c1ccccn1	17
CC(Oc1cccc(Cl)c1)C(=O)Nc1ccncc1 (stereo not drawn)	4.24
O=c1c(CO)cc(CO)cc(CO)c1O	4.46
O=C(Nc1ccccc1)c1ccc(CSc2ccccn2)cc1	7.32
O=c1c2ccccc2nc(-c2ccccc2)n1-c1cccnc1	-9.75
N#CCC(=O)NN=C1CCCCCCCCCCC1	13.4
O=C1Nc2ccccc2N(O)N1c1ccc(Cl)cc1	17.2
O=C(Nc1ccccc1C(=O)Nc1ccccc1C(=O)NCc1ccco1)c1ccco1	11.4
Cc1c(OC(C)C(=O)O)ccc2c3c(c(=O)oc12)CCCC3 (stereo not drawn)	10.8

Structure (SMILES)	hERG current change (%, negative = inhibition) at 1uM [%]
CC(C)CC(NC(=O)CCC(=O)OCC(=O)[C@@]1(O)CCC2[C@@H]3CCC4=CC(=O)C=C[C@]4(C)C3[C@@H](O)C[C@@]21C)C(=O)O (stereo partly drawn)	6.47
O=C(NCc1ccc2c(c1)OCO2)c1ccc(CSCc2cccc(Cl)c2)o1	-1.64
COc1cccc(CNC2CCCC2)c1	-5.01
COC(=O)C1=C(c2ccc3ccccc3c2)C[C@@H]2CC[C@H]1N2C(=O)NC1CCCCC1	6.06
O=[N+]([O-])c1ccc(N/N=C/c2cn(Cc3ccc(F)cc3)c3ccccc23)nc1	11.3
CC(C)Oc1ccc(Cn2c(-c3ccco3)n[nH]c2=S)cc1	8.54
O=c1c2c3c(sc2nc2n1CCC2)CCCCC3	0.0069
COc1ccc(Nc2nc(-c3ccccc3)cs2)cc1	-4.43
Cc1nnc(NC(=O)C2(c3ccccc3)CCOCC2)s1	12.6
Cc1ccc(C(=O)O)cc1NC(=O)CSc1ncnc2sc3c(c12)CCC3	-4.56
COc1ccc(C(NC(=O)c2c(F)c(F)c(F)c(F)c2F)c2ccccc2)cc1 (stereo not drawn)	12.9
COc1ccc(C(=O)OCCNC(=O)c2c(Cl)nc3ccccn23)cc1.Cl	5.9
CC(C)[C@]1(c2ccccc2)ON(c2ccccc2C(F)(F)F)C1=O	8.52
Cc1cccc(NC(=O)Cn2cnc3ccccc3c2=O)c1C	-4.45
O=[N+]([O-])c1ccc(S(=O)(=O)NCCc2ccncc2)cc1	-12
CC1CN(C(=O)C(C)Sc2nnnn2C)CC(C)O1 (stereo not drawn)	9.36
COc1ccc(/C=C(\NC(=O)c2cccs2)C(=O)NN)cc1OC	6.72
C/C(CC(=O)Nc1cc(C)ccn1)=N\NC(=O)C(=O)Nc1cccc(C)c1	-1.47
CCOCCCNS(=O)(=O)c1ccc(NC(=O)C2CC(=O)N(c3ccc(C)cc3)C2)cc1 (stereo not drawn)	11.4
O=C(c1cnccn1)N1CCc2c([nH]c3ccccc23)C1c1cccc(Cl)c1 (stereo not drawn)	-8.37
COc1ccc(-c2oc3ccc(-c4cc(OC)c(OC)c(OC)c4)cc3c2-c2ccc(OC)nc2)cc1	11.4

From PMC4336329 (PLoS ONE, 2015)
